# Laboratory results: the supplement of paper PMC8728848
# The list shows a part of the results.
# B1: PNA (Arachis hypogaea), P02872 (protein)
# chain: MKPFCVFLTFFLLLAASSKKVDSAETVSFNFNSFSEGNPAINFQGDVTVLSNGNIQLTNLNKVNSVGRVLYAMPVRIWSSATGNVASFLTSFSFEMKDIKDYDPADGIIFFIAPEDTQIPAGSIGGGTLGVSDTKGAGHFVGVEFDTYSNSEYNDPPTDHVGIDVNSVDSVKTVPWNSVSGAVVKVTVIYDSSTKTLSVAVTNDNGDITTIAQVVDLKAKLPERVKFGFSASGSLGGRQIHLIRSWSFTSTLITTTRRSIDNNEKKIMNMASA
# Experiments:
# Assay in all cases: glycan array binding signal (z-score within array); higher = stronger binding
# Conditions in all cases: glycan notation: IUPAC condensed, linker removed
# [1] = biological target: Gal3S(b1-4)Glc6S
# In short: (§1)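 Columns mapping to the same glycan were averaged after glycan names were converted to IUPAC-condensed notation. The data come from 3228 arrays in the Consortium for Functional Glycomics database, limited to those with an available protein sequence. Binding is reported as a within-array Z-score averaged across arrays of one protein sequence and across linkers.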
# [2] = biological target: Gal3S(b1-4)GlcNAc
# In short: as §1
# [3] = biological target: Gal3S(b1-4)GlcNAc(b1-3)Gal
# In short: as §1
# [4] = biological target: Gal3S(b1-4)GlcNAc6S
# In short: as §1
# [5] = biological target: Gal3S(b1-4)[Fuc(a1-3)]Glc
# In short: as §1
# [6] = biological target: Gal3S(b1-4)[Fuc(a1-3)]Glc6S
# In short: as §1
# [7] = biological target: Gal3S(b1-4)[Fuc(a1-3)]GlcNAc
# In short: as §1
# [8] = biological target: Gal3S(b1-4)[Fuc(a1-3)]GlcNAc6S
# In short: as §1
# [9] = biological target: Gal3S4S(b1-4)GlcNAc
# In short: as §1
# [10] = biological target: Gal3S6S(b1-4)GlcNAc
# In short: as §1
# [11] = biological target: Gal3S6S(b1-4)GlcNAc6S
# In short: as §1
# [12] = biological target: Gal4S(b1-4)GlcNAc
# In short: as §1
# [13] = biological target: Gal4S6S(b1-4)GlcNAc
# In short: as §1
# [14] = biological target: Gal6P(b1-4)GlcNAc
# In short: as §1
# [15] = biological target: Gal6S(b1-3)GlcNAc
# In short: as §1
# [16] = biological target: Gal6S(b1-3)GlcNAc6S
# In short: as §1
# [17] = biological target: Gal6S(b1-3)[Fuc(a1-4)]GlcNAc(b1-3)Gal(b1-4)Glc
# In short: as §1
# [18] = biological target: Gal6S(b1-4)Glc
# In short: as §1
# [19] = biological target: Gal6S(b1-4)Glc6S
# In short: as §1
# [20] = biological target: Gal6S(b1-4)GlcNAc
# In short: as §1
# [21] = biological target: Gal6S(b1-4)GlcNAc6S
# In short: as §1
# [22] = biological target: GalNAc(a1-3)Gal
# In short: as §1
# [23] = biological target: GalNAc(a1-3)Gal(b1-4)Glc
# In short: as §1
# [24] = biological target: GalNAc(a1-3)GalNAc
# In short: as §1
# [25] = biological target: GalNAc(a1-3)GalNAc(a1-3)Gal(a1-4)Gal(b1-4)GlcNAc
# In short: as §1
# [26] = biological target: GalNAc(a1-3)GalNAc(b1-3)Gal(a1-4)Gal(b1-4)Glc
# In short: as §1
# [27] = biological target: GalNAc(b1-3)Gal
# In short: as §1
# [28] = biological target: GalNAc(b1-3)Gal(a1-4)Gal(b1-4)GlcNAc
# In short: as §1
# [29] = biological target: GalNAc(b1-3)Gal(a1-4)Gal(b1-4)GlcNAc(b1-3)Gal(b1-4)Glc
# In short: as §1
# [30] = biological target: GalNAc(b1-3)Gal(a1-6)Gal(b1-4)Glc
# In short: as §1
# [31] = biological target: GalNAc(b1-3)GalNAc
# In short: as §1
# [32] = biological target: GalNAc(b1-3)GlcNAc
# In short: as §1
# [33] = biological target: GalNAc(b1-4)Gal(b1-4)Glc
# In short: as §1
# [34] = biological target: GalNAc(b1-4)Gal3S(b1-4)Glc
# In short: as §1
# [35] = biological target: GalNAc(b1-4)GlcNAc
# In short: as §1
# [36] = biological target: GalNAc(b1-4)GlcNAc(b1-2)Man
# In short: as §1
# [37] = biological target: GalNAc(b1-4)GlcNAc(b1-2)Man(a1-3)[GalNAc(b1-4)GlcNAc(b1-2)Man(a1-6)]Man(b1-4)GlcNAc(b1-4)GlcNAc
# In short: as §1
binder,measurement,setting,value
B1,glycan array binding signal (z-score),[1],-0.04
same,glycan array binding signal (z-score),[2],-0.032
same,glycan array binding signal (z-score),[3],-0.195
same,glycan array binding signal (z-score),[4],-0.063
same,glycan array binding signal (z-score),[5],-0.222
same,glycan array binding signal (z-score),[6],-0.025
same,glycan array binding signal (z-score),[7],-0.148
same,glycan array binding signal (z-score),[8],0.268
same,glycan array binding signal (z-score),[9],-0.176
same,glycan array binding signal (z-score),[10],-0.186
same,glycan array binding signal (z-score),[11],-0.211
same,glycan array binding signal (z-score),[12],-0.215
same,glycan array binding signal (z-score),[13],-0.111
same,glycan array binding signal (z-score),[14],-0.306
same,glycan array binding signal (z-score),[15],-0.328
same,glycan array binding signal (z-score),[16],-0.244
same,glycan array binding signal (z-score),[17],-0.195
same,glycan array binding signal (z-score),[18],-0.174
same,glycan array binding signal (z-score),[19],-0.108
same,glycan array binding signal (z-score),[20],-0.234
same,glycan array binding signal (z-score),[21],-0.15
same,glycan array binding signal (z-score),[22],-0.183
same,glycan array binding signal (z-score),[23],-0.195
same,glycan array binding signal (z-score),[24],-0.155
same,glycan array binding signal (z-score),[25],-0.254
same,glycan array binding signal (z-score),[26],-0.194
same,glycan array binding signal (z-score),[27],-0.18
same,glycan array binding signal (z-score),[28],-0.197
same,glycan array binding signal (z-score),[29],-0.19
same,glycan array binding signal (z-score),[30],-0.119
same,glycan array binding signal (z-score),[31],-0.128
same,glycan array binding signal (z-score),[32],-0.254
same,glycan array binding signal (z-score),[33],-0.172
same,glycan array binding signal (z-score),[34],-0.195
same,glycan array binding signal (z-score),[35],-0.059
same,glycan array binding signal (z-score),[36],-0.014
same,glycan array binding signal (z-score),[37],1.67
